The text below walks through data of publication PMC4336329 (PLoS ONE, 2015).

Hit rate of the full screen: of about 310,000 compounds, about 2,200 (0.71%) showed an effect of 50% or more. Effects have a minus sign here. Some of the results follow.

In the assay the target is human ether-à-go-go-related gene (hERG) potassium channel (human, UniProt Q12809). The assay can be described thus: primary screen, population patch clamp on CHO cells stably expressing hERG.
Sequence of human ether-à-go-go-related gene (hERG) potassium channel (Q12809 whole entry, looked up): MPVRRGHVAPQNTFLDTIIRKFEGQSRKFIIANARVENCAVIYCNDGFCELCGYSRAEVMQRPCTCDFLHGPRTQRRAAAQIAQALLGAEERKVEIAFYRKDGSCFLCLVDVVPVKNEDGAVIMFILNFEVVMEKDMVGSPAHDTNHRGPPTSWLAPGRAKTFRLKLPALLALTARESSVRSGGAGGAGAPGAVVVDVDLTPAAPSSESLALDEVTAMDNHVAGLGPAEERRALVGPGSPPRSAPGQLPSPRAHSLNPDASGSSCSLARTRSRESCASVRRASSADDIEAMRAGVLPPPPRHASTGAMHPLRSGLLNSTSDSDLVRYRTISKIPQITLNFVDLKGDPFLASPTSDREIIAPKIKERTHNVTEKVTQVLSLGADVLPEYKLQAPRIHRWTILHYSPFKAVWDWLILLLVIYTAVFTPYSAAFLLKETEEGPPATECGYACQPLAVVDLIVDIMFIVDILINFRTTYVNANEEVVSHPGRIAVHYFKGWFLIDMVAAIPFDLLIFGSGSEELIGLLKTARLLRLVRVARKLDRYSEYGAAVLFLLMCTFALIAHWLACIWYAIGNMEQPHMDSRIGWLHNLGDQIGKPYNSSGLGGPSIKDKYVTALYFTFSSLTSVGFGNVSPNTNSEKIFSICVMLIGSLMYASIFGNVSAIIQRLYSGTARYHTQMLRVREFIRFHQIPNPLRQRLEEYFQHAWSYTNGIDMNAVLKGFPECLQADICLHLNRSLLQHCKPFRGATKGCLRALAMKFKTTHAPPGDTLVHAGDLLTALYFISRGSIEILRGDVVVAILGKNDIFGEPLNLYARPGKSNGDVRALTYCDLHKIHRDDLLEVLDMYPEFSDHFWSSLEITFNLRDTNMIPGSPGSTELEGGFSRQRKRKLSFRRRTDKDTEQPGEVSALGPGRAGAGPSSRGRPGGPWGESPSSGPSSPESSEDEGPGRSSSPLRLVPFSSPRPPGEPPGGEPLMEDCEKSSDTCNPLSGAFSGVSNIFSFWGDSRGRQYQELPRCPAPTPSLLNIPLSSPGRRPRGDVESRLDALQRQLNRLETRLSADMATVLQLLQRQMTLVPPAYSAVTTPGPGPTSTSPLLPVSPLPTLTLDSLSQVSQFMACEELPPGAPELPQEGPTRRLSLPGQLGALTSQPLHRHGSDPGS
For the compound `CCCNC1=CC(=O)CC(C)(C)C1`, the “hERG current change (%, negative = inhibition) at 1uM” value worked out at 6.39%.
For `O=C(O)C1CCCCC1C(=O)NCCCN1CCCC1=O` (stereo not shown), the “hERG current change (%, negative = inhibition) at 1uM” value amounted to 18.7%.
Regarding `COC(=O)CCCC1=CC2=C(c3ccccc3)C(=O)C(C)(OC(=O)C3CCCC3)C(=O)C2=CN1C1CC1` (stereo not shown), the “hERG current change (%, negative = inhibition) at 1uM” value was found to be 7.39%.
To `COc1ccc(-c2csc(NC(=O)COC(=O)c3ccc(Br)o3)n2)cc1` belongs 13.6%.
The value for `Cc1c(C(=O)NCc2cccnc2)oc2ccc(S(=O)(=O)N3CCCCC3)cc12` was -8.1%; that for `COc1ccc2oc(=O)c(C(=O)C[n+]3cccc(C)c3)cc2c1.[Br-]` was 9.07%.
As for `Cc1ccsc1C(=O)OCC(=O)Nc1cccc(S(=O)(=O)NC2=NCCCCC2)c1`, the “hERG current change (%, negative = inhibition) at 1uM” value is 12.8%.
In the case of `Cc1ccc(S(=O)(=O)NC(CC(=O)O)c2ccc(F)cc2)cc1` (stereo not shown), the “hERG current change (%, negative = inhibition) at 1uM” value was 16.7%.
As for `Cc1cc(C)nc(N(C#N)CC(=O)c2ccccc2)n1`, the “hERG current change (%, negative = inhibition) at 1uM” value is given as -13.1%.
On to `O=c1c2ccccc2[nH]c2ccc(O)cc12`, for which the “hERG current change (%, negative = inhibition) at 1uM” value is 5.65%.
The value for `CCn1ncc(Br)c1C(=O)Nc1sc2c(c1C(N)=O)CCC2` was -3.09%; that for `COc1ccc(N2C(=O)CC(NNC(=O)c3cc(C)oc3C)C2=O)cc1` (stereo not shown) was 7.52%.
To `O=C(/C=C/c1ccccc1F)c1cccc([N+](=O)[O-])c1` belongs 9.22%.
Take `O=C1NC(c2ccccc2)Nc2c1sc(=S)n2-c1ccccc1` (stereo not shown): the “hERG current change (%, negative = inhibition) at 1uM” value came to 8.84%.
For the compound `COc1ccc(-n2c(Cc3cccn3C)nnc2SCC(=O)Nc2cccc(C)c2C)cc1`, the “hERG current change (%, negative = inhibition) at 1uM” value is -22.6%.
`O=c1c2cc(F)ccc2[nH]c(=S)n1CCCN1CCOCC1`: the “hERG current change (%, negative = inhibition) at 1uM” value was found to be 5.39%.
As to `O=C(c1ccco1)c1n[nH]nc1-c1ccccc1`, the “hERG current change (%, negative = inhibition) at 1uM” value turned out to be 12%.
As to `O=C(NCC1CCCO1)Nc1ccc2c(c1)OCO2` (stereo not shown), the “hERG current change (%, negative = inhibition) at 1uM” value is listed as 9.06%.
For the compound `Cc1ccc(NC(=O)c2ccc(NCCCN3CCC(C)CC3)c([N+](=O)[O-])c2)c(C)c1`, the “hERG current change (%, negative = inhibition) at 1uM” value was -1.32%.
Take `O=c1oc2ccccc2c(Cl)c1CN1CCCCC1`: the “hERG current change (%, negative = inhibition) at 1uM” value is 17.4%.
For the compound `C/C(=N\Nc1ccc(S(=O)(=O)N2CCCCC2)cn1)c1ccc(O)cc1`, the “hERG current change (%, negative = inhibition) at 1uM” value is given as 1.48%.
In the case of `O=c1c2ccccc2nc(SCCN2CCCCC2)n1CCc1ccccc1`, the “hERG current change (%, negative = inhibition) at 1uM” value was -10%.
`CC1C(=O)N(Cc2cccc(F)c2)c2ccccc2N1C(=O)c1ccccc1` (stereo not shown): the “hERG current change (%, negative = inhibition) at 1uM” value is 14.6%.
Regarding `COCCn1c(C)cc(C(=O)COC(=O)c2ccc3c(c2)NC(=O)CS3)c1C`, the “hERG current change (%, negative = inhibition) at 1uM” value is given as 4.99%.
To `CCOc1ccccc1N1CCN(CC(=O)Nc2ccccc2C(=O)NC2CC2)CC1` belongs -23.5%.
`CCc1ccc(/C=C2\SC(=S)N(CCCC(=O)Nc3nccs3)C2=O)cc1`: the “hERG current change (%, negative = inhibition) at 1uM” value was 8.28%.
To `CC/S(CC1CC1(Cl)Cl)=N\S(=O)(=O)c1ccc(C)cc1` (stereo not shown) belongs 9.13%.
On to `COc1ccccc1CN(CC(=O)NCc1ccco1)C(=O)CNS(=O)(=O)c1ccccc1`, for which the “hERG current change (%, negative = inhibition) at 1uM” value is 2.71%.
The value for `CC(/C=C/C=C/c1ccccc1)=N\NC(=O)c1cccnc1` was 5.88%; that for `COc1ccc(N2CCN(C(=O)COC(=O)CNC(=O)c3cccc(OC(F)F)c3)CC2)cc1` was 2.77%; that for `O=C(CN1CCN(Cc2ccccc2Cl)CC1)N/N=C/C=C\c1ccccc1[N+](=O)[O-]` was -12.3%.
For the compound `CN(C)/C=C/C(=O)/C=C/c1ccc(Cl)cc1`, the “hERG current change (%, negative = inhibition) at 1uM” value is 12.2%.
As to `N#C/C(=N\Nc1ccccc1Cl)C(=O)c1ccccc1`, the “hERG current change (%, negative = inhibition) at 1uM” value is given as 24.3%.
With `Cc1ccc(P(=O)(CSC(=N)N)c2ccc(C)cc2)cc1.Cl`, the “hERG current change (%, negative = inhibition) at 1uM” value was 0.713%.
`CCCC(O)(c1ccc(CC)cc1)C(CN1CCOCC1)c1ccccc1.Cl` (stereo not shown): the “hERG current change (%, negative = inhibition) at 1uM” value was determined as 18.3%.
Turning to `Cc1ccc(NC(=O)c2cc(S(=O)(=O)N3CCOCC3)cn2C)c(C)c1`, the “hERG current change (%, negative = inhibition) at 1uM” value is 5.42%.
For `COc1cccc(CNc2ncc(-c3ccccc3)n2C)c1`, the “hERG current change (%, negative = inhibition) at 1uM” value is -6.74%.
On to `CCOc1ccc(CN2CCNC(=O)C2CC(=O)NCc2cc(C)n(C)n2)cc1` (stereo not shown), for which the “hERG current change (%, negative = inhibition) at 1uM” value is on record as 7.33%.
To `Cc1cc(C)nc(NC(=O)c2cccc(Br)c2)n1` belongs 15%.
As for `CC(=O)c1c(C)[nH]c(C(=O)N2CCN(S(=O)(=O)c3ccc(F)c(F)c3)CC2)c1C`, the “hERG current change (%, negative = inhibition) at 1uM” value worked out at 7.42%.
For `CCOC(=O)[C@H]1[C@H]2COc3ccc(C)cc3[C@@H]2N2C(=O)[C@@H](C)NC(=O)[C@@]12C`, the “hERG current change (%, negative = inhibition) at 1uM” value is 14%.
In the case of `COc1cc(/C=C2/CC/C(=C/c3ccc(O)c(OC)c3)C2=O)ccc1O`, the “hERG current change (%, negative = inhibition) at 1uM” value was -2.14%.
For `COc1ccnc(-n2cccc2C=O)c1C#N`, the “hERG current change (%, negative = inhibition) at 1uM” value was 6.53%.
On to `OCC1(CO)COC(/C=C/c2ccccc2)=N1`, for which the “hERG current change (%, negative = inhibition) at 1uM” value is 4.78%.
Take `CS(=O)(=O)Nc1nnc(SCC(=O)N(c2ccccc2)c2ccccc2)s1`: the “hERG current change (%, negative = inhibition) at 1uM” value is 12.9%.
On to `COCC(=O)Nc1nc2ccccc2s1`, for which the “hERG current change (%, negative = inhibition) at 1uM” value worked out at 6.47%.
Take `COc1cccc(CCNS(=O)(=O)CCNC(=O)c2cccc(OC)c2)c1`: the “hERG current change (%, negative = inhibition) at 1uM” value amounted to 11.9%.
Turning to `CCOc1cc(/C=N/NS(=O)(=O)c2ccc(OC)cc2)ccc1OCCN1CCOCC1`, the “hERG current change (%, negative = inhibition) at 1uM” value is listed as -1.67%.
To `CC(C)CC(=O)C(=O)[O-].[Na+]` belongs 8.28%.
Regarding `CCOc1c(Br)cc(C2NS(=O)(=O)N=C3CCCCCN32)cc1OC` (stereo not shown), the “hERG current change (%, negative = inhibition) at 1uM” value came to 17.9%.
Take `COc1ccc(C)cc1N(CC(=O)NC1CCCC1)C(=O)CCC(=O)Nc1cc(C)on1`: the “hERG current change (%, negative = inhibition) at 1uM” value is 10.1%.
Turning to `COc1ccc(-c2nc3ccccn3c2C=O)cc1`, the “hERG current change (%, negative = inhibition) at 1uM” value came to 7.35%.
On to `Cc1ccc(NC(=O)CS(=O)CC(=O)Nc2cccc(C)c2C)cc1F` (stereo not shown), for which the “hERG current change (%, negative = inhibition) at 1uM” value turned out to be 9.44%.
As for `O=C1c2ccccc2C(=O)N1CCCc1nc(-c2cccnc2)no1`, the “hERG current change (%, negative = inhibition) at 1uM” value is on record as -2.02%.
Turning to `Cc1ccc(C(=O)NNC(=O)c2cccc(C)c2)cc1`, the “hERG current change (%, negative = inhibition) at 1uM” value was determined as 12.7%.
For the compound `O=C(NCc1ccco1)C1(S(=O)(=O)c2ccccc2)CC=CC1`, the “hERG current change (%, negative = inhibition) at 1uM” value came to 13.1%.
As to `O=C(/C=C/Nc1ccc(Br)cn1)c1cccc(OC(F)F)c1`, the “hERG current change (%, negative = inhibition) at 1uM” value came out at 6.6%.
With `CCCc1cc(=O)oc2cc(C)cc(OC(=O)c3ccco3)c12`, the “hERG current change (%, negative = inhibition) at 1uM” value was determined as 15%.
